Laboratory results from PubChem BioAssay AID686978 (National Center for Advancing Translational Sciences (NCATS), 2013).
Several values for one entry are separate records, joined by “and”; a condition that tells them apart may be missing. Identical values can stand only once. The campaign covered roughly 420,000 compounds. About 64,000 (15%) were called active. This list was built around the results that the source calls inconclusive (neither active nor inactive); the mix of calls is not that of the screen. The call rests on the fitted dose curve; in most records, active means well fitted inhibition curve with a large enough effect; inconclusive means small, poorly fitted or top-dose-only effect; inactive means flat fitted curve, though single readings scatter. Potencies of inconclusive entries are doubtful fits and often do not repeat.

Assay: qHTS for Inhibitors of human tyrosyl-DNA phosphodiesterase 1 (TDP1): qHTS in cells in absence of CPT; further: nearly all actives have a fitted effect of over 55% in size
Settings: DT40 Tdp1-/- hTDP1 cells, no CPT, ATP luminescence, 48 h; series mostly up to 46.2 µM
In short: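 Stably hTDP1-transfected Tdp1-null chicken DT40 cells were treated with library compounds minus camptothecin and grown for at least 48 hr at 37 °C, after which cellular ATP was quantified by luminescence.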
Potency means the concentration at half of the fitted maximal effect; tags describe the fitted curve by direction and shape.

Structure (SMILES) | Potency
COc1ccc(/C=C(\C#N)c2n[nH]c(Cn3cncn3)n2)cc1 | inconclusive: 29.1 µM [inhibitor, single point]
COc1cc(/C=N/NC(=O)c2nnn(-c3nonc3N)c2C(C)C)ccc1OCc1ccccc1 | active: 20.6 µM
COc1ccc2nc(NC(=O)C3CSC4(C)CCC(=O)N34)sc2c1 (centres undefined) | inconclusive: 29.1 µM [inhibitor, single point]
CC(C)NCC(O)COC1CCC(C(C)(C)C)CC1 (centres undefined) | inconclusive: 16.4 µM [inhibitor, single point]
CCN(CC)CCCN(Cc1cc2cc3c(cc2[nH]c1=O)OCO3)C(=S)Nc1ccccc1 | inconclusive: 18.4 µM [inhibitor, single point]
Cc1cccc(SC2CCN(C(=O)C3CCC(=O)N(C4CC4)C3)CC2)c1 (centres undefined) | inconclusive: 16.4 µM [inhibitor, partial curve]
CCCCc1ccc(NC(=O)NCc2cccnc2)cc1 | inactive
CC(=O)c1cccc(NC(=O)c2cc(=O)[nH]c3ccccc23)c1 | inactive
CC(=O)Nc1cccc(NC(=O)c2cc(-c3cccnc3)nc3ccc(Cl)cc23)c1 | inconclusive: 23.1 µM [inhibitor, single point]
Nc1nc2c(c(=O)[nH]1)N=C(CNc1ccc(C(=O)NC(CCC(=O)O)C(=O)O)cc1)CN2 (centres undefined) | inactive
Cc1ccc(N2CCN(C(=S)c3ccc(N(C)C)cc3)CC2)cc1 | inconclusive: 29.1 µM [inhibitor, single point]
CCNc1nc(NCC)nc(SCC(C)=O)n1 | inconclusive: 20.6 µM [inhibitor, single point]
CC(C)[C@@H](N)C(=O)N/N=C/c1ccc2nccnc2c1 | inconclusive: 16.4 µM [inhibitor, partial curve, poor fit]
O=C(COC(=O)CNC(=O)c1cccc(Br)c1)Nc1nnc(-c2ccccc2)o1 | inactive
COc1cccc(NC(=O)CN(C)C(=O)c2cc(-c3cccc(Br)c3)nc3ccccc23)c1 | active: 16.4 µM
CCOc1ccc(/C=N/NC(=O)c2cc3c(OC)cccc3[nH]2)cc1 | active: 23.1 µM
COCCn1c(CN2CCN(c3ccc(OC)cc3)CC2)nc2c1c(=O)n(C)c(=O)n2C | inconclusive: 20.6 µM [inhibitor, partial curve]
COc1ccc(S(=O)(=O)Nc2cc3c(cc2NCc2ccccc2)n(C)c(=O)n3C)cc1OC | active: 20.6 µM
O=C(Nc1ccc(CN2CCS(=O)(=O)CC2)cc1)c1ccc(C(F)(F)F)cc1 | active: 20.6 µM
COc1cccc(-n2cc(C(=O)NCc3cccc(Cl)c3)c3ccccc3c2=O)c1 | inconclusive: 20.6 µM [inhibitor, single point]
O=C(O)c1cc(-c2ccc(N3CCOCC3)cc2)nn1-c1ccc(F)cc1 | inactive
Cc1ccc(-n2nc3c(c2NC(=O)CC(C)C)CS(=O)(=O)C3)cc1 | inactive
CCOc1ccc(CCNC(=O)COC(=O)CCc2cc(OC)c(OC)c(OC)c2)cc1OCC | inactive
Cc1cccc(CNc2ncncc2-c2cccnc2)c1 | inactive
COc1ccc(/C(C)=N/OCC(=O)Nc2nc3ccccc3s2)cc1OC | inconclusive: 20.6 µM [inhibitor, single point]

Structure (SMILES) | Potency
O=C(CSc1nnc(-c2ccc(OC(F)F)cc2)o1)NC(=O)NCc1ccco1 | inconclusive: 6.51 µM [inhibitor, partial curve]
Cn1cc(-c2nnc(-c3ccccc3)o2)c2ccccc21 | inconclusive: 1.16 µM [inhibitor, full curve, poor fit]
O=Cc1ccc(/C=C2/C=Cc3ccccc32)cc1 | inactive
Cc1ccc2nc(C)cc(C(=O)OCC(=O)c3ccc(Cl)c([N+](=O)[O-])c3)c2c1 | inconclusive: 29.1 µM [inhibitor, single point]
CN(C)CCSc1nc(N)c2c3c(sc2n1)COC(C)(C)C3 | inactive
COc1ccccc1C1=NNC(=Nc2cccc(S(=O)(=O)N(C)C)c2)SC1 | inconclusive: 18.4 µM [inhibitor, single point]
COc1ccc(NC(=O)CN(C)C(=O)c2cccc(S(=O)(=O)N3CCN(Cc4ccccc4)CC3)c2)cc1 | active: 11.6 µM
CCOc1ccc(CNC2CCCc3ccccc32)cc1 (centres undefined) | inconclusive: 29.1 µM [inhibitor, single point]
Cc1ccc(N2CCN(CC(O)COc3cccc(C)c3)CC2)cc1 (centres undefined) | inconclusive: 23.1 µM [inhibitor, single point]
C=CCN(CC=C)C(=O)CN1C(=O)NC(c2ccccc2)(c2ccccc2)C1=O | inconclusive: 29.1 µM [inhibitor, single point]
COc1ccc(CNC(=O)CCC(=O)Nc2ccc(Cl)cc2)cc1 | inactive
Cc1cccc(OC(C)C(=O)Nc2nc(-c3ccncc3)cs2)c1 (centres undefined) | active: 23.1 µM
CN(C)C(=O)c1ccc(-c2nc(N(C)C)c3ccccc3n2)cc1 | inconclusive: 18.4 µM [inhibitor, single point]
CCOc1ccc(NC(=O)C2CCCN(S(=O)(=O)c3cccc4nsnc34)C2)cc1 (centres undefined) | active: 15.8 µM
O=[N+]([O-])c1ccccc1S(=O)(=O)NCCSc1ccccc1 | inactive
Cc1nnc(NC(=O)c2cc3n(n2)C(C(F)(F)F)CC(C2CC2)N3)s1 (centres undefined) | inactive
Cc1nc(SCC(=O)c2cc3ccccc3oc2=O)c(C#N)c(-c2ccccc2)c1C(=O)Nc1ccccc1 | active: 18.4 µM
CC(C)CNc1nnnc2c1sc1nc(N3CCOCC3)c3c(c12)CC(C)(C)SC3 | inconclusive: 18.4 µM [inhibitor, single point]
CCCCn1c(N)c(N(CCOC)C(=O)c2ccc(-c3ccc(C(C)=O)cc3)o2)c(=O)[nH]c1=O | inactive
CN1CCN(c2ccc(Cl)cc2NC(=O)c2cc(=O)[nH]c3ccccc23)CC1 | inconclusive: 18.4 µM [inhibitor, single point]
COc1ccc(N2C(=O)C(OC(C)=O)C2c2ccc(C)cc2)cc1 (centres undefined) | inconclusive: 9.2 µM [inhibitor, partial curve, poor fit]
Cc1ccc2c(=O)cc(CSc3nnc(-c4ccccc4)n3C)[nH]c2c1C | inactive
COc1ccc(CCNS(=O)(=O)c2ccc3oc(C(=O)O)c(C)c3c2)cc1OC | inactive
COc1cc2c(cc1OC)CN(Cc1ccc(OC)c(C)c1OC)CC2 | active: 20.6 µM
CCC(C(=O)NC1CC1)n1nc(C)c2c(C)n(-c3ccc(C)cc3)nc2c1=O (centres undefined) | inactive

Structure (SMILES) | Potency
COCc1nnc(NS(=O)(=O)c2ccc(F)cc2)s1 | inactive
COc1cc(C(=O)N2CCN(c3ccccc3)CC2)c2ccccc2n1 | active: 0.731 µM
CSc1ccc(C(=O)C2CCCN(C(=O)c3ccc4c(c3)no[n+]4[O-])C2)cc1 (centres undefined) | active: 13 µM
Cc1ccc(-n2nnnc2SCC(=O)NCC2(N3CCOCC3)CCCCC2)cc1 | inconclusive: 16.4 µM [inhibitor, single point]
CCOC(=O)CNS(=O)(=O)c1cc(-c2nnc(Nc3ccc4c(c3)OCO4)c3ccccc23)ccc1C | inconclusive: 16.4 µM [inhibitor, single point]
CCCNC(=O)c1cc(-c2ccco2)on1 | active: 9.2 µM
Cc1cc(Cl)ccc1OCc1nc(-c2ccncc2)no1 | inconclusive: 29.1 µM [inhibitor, single point]
CC(=O)Nc1ccc(S(=O)(=O)N2CCC(Oc3ccc(-n4cnnn4)cc3)CC2)cc1 | inconclusive: 5.17 µM [inhibitor, full curve] and inconclusive: 18.4 µM [inhibitor, single point]
CCOc1ccccc1N1CCN(Cc2c(C)n(C)n(-c3ccccc3)c2=O)CC1 | inactive
O=S1(=O)CCO[C@H]2CCCC[C@@H]2N1Cc1ccccc1 | inconclusive: 35.5 µM [inhibitor, single point]
COc1cc(OC)cc(-n2nnc(-c3nc(-c4ccccc4Cl)no3)c2N)c1 | inconclusive: 18.4 µM [inhibitor, single point]
Clc1ccc2c(N/N=C/c3cccnc3)ccnc2c1 | inconclusive: 16.4 µM [inhibitor, single point]
CC1CCN(C(=O)c2cnn(-c3cccc(Cl)c3)c2C2CCN(C(=O)OC(C)(C)C)CC2)CC1 | inconclusive: 29.1 µM [inhibitor, single point]
O=C(CNC(=O)c1ccco1)NNC(=O)c1ccc(Br)cc1 | inactive
C[C@@H]1CN(Cc2cn(C)nc2-c2cccc(Cl)c2)C[C@H](C)O1 | inconclusive: 25.9 µM [inhibitor, single point]
Cc1cc2ncc(C(N)=O)cn2n1 | inactive
COC(=O)c1cc2c(ccn2-c2ccc(F)cc2)n1Cc1cccc(OC)c1 | active: 16.4 µM
COCCCNC(=O)c1sc2nc(C)c(C(=O)Nc3ccc(C)cc3C)c(-c3ccc(Cl)cc3)c2c1N | inconclusive: 29.1 µM [inhibitor, single point]
O=C(CC1SCCNC1=O)NCc1ccccc1 (centres undefined) | inactive
Cc1cc(NC(=O)c2sc(Nc3ccc(F)cc3)nc2N)no1 | inconclusive: 18.4 µM [inhibitor, partial curve]
Cc1ccc(OCC(=O)NCCN2CCCC2)cc1 | inactive
CC(=O)OC(COc1ccc(F)cc1)Cn1cnc2ccccc21 (centres undefined) | inconclusive: 16.4 µM [inhibitor, partial curve]
COc1ccc(OCC(=O)Nc2ccc3c(c2)nc(CCN2CCN(C)CC2)n3C)cc1 | inconclusive: 29.1 µM [inhibitor, single point]
COc1ccc(OCC(=O)NCC(c2ccc(Cl)cc2)N2CCCCC2)cc1 (centres undefined) | inconclusive: 23.1 µM [inhibitor, single point]
